Literature values, collected in patent publication US20220226297A1 (Animal Ethics Pty Ltd, priority 2019, published 2022).

Settings: in vivo

CCCCN1CCCCC1C(=O)Nc1c(C)cccc1C (stereo not shown) [bupivacaine]
duration of anaesthesia, up to: 6 to 12 h
